This passage reports relative cell viability results from the supplement of paper PMC10670038.

Counter-ions that a name gives are not always drawn. ± gives the standard deviation of the averaged measurements. In all, about 2,000 compounds were measured (“relative cell viability vs DMSO, compound alone”: median about 1.1, lowest 2% from about 0.29 on). Some of the results follow.

The test system of the assay is TE10. Briefly: relative cell viability vs DMSO, compound alone (fraction); TE10 is an esophageal squamous carcinoma line; higher = less cytotoxic. Conditions: 2 µM; 48 h. As for the experimental part:
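TE10 ESCC cells (1,000/well, 384-well plates) were treated with Selleck bioactive library compounds at 2 uM alone for 48 h. Viability was read by CellTiter-Glo and expressed relative to DMSO wells. Two technical replicates (A, B).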
Molecule `C=C1/C(=C\C=C2/CCC[C@]3(C)[C@@H]([C@H](C)/C=C/[C@H](C)C(C)C)CC[C@@H]23)C[C@@H](O)C[C@@H]1O` [Doxercalciferol] showed a relative cell viability of 0.986 ± 0.23.
As for `C[C@H]1O[C@@H](Oc2c(-c3cc(O)c(O)c(O)c3)oc3cc(O)cc(O)c3c2=O)[C@@H](O)[C@@H](O)[C@@H]1O` [Myricitrin], the figure is 0.988 ± 0.19; as for `CCCCN1CCCCC1C(=O)Nc1c(C)cccc1C` (centres undefined) [Bupivacaine HCl], 1.1 ± 0.052.
As for `CCOC(=O)c1[nH]c2cc(Cl)ccc2c1C(C(=O)NC(C)(C)C)N(C=O)Cc1ccc(Cl)cc1` (centres undefined), the relative cell viability came out at 1.189 ± 0.0039.
Then `CCN1CCN(Cc2ccc(-c3cc4c(N[C@H](C)c5ccccc5)ncnc4[nH]3)cc2)CC1`, with 1.308 ± 0.0033; and `CCOC(=O)c1c(CSc2ccccc2)n(C)c2cc(Br)c(O)c(CN(C)C)c12` [Arbidol HCl], with 0.876 ± 0.064.
As for `COc1cc(N2CCC(N3CCN(C)CC3)CC2)ccc1Nc1ncnc(Nc2ccccc2S(=O)(=O)C(C)C)n1`, the figure is 1.05 ± 0.073; as for `Cc1nc(Nc2ncc(C(=O)Nc3c(C)cccc3Cl)s2)cc(N2CCN(CCO)CC2)n1` [Dasatinib], 0.98 ± 0.0031; as for `Cc1nc(Nc2ncc(C(=O)Nc3c(C)cccc3Cl)s2)cc(N2CCN(CCO)CC2)n1` [Dasatinib Monohydrate], 0.938 ± 0.087.
Then `Cc1cc(Nc2nc(N[C@@H](C)c3ccc(F)cc3)c(C#N)cc2F)n[nH]1`, with 0.772 ± 0.087; and `Cc1nc(-c2ccc(OCC(C)C)c(C#N)c2)sc1C(=O)O` [Febuxostat], with 1.04 ± 0.091; and `CC(C(=O)O)c1ccc2c(c1)CC(=O)c1ccccc1S2` (centres undefined) [Zaltoprofen], with 1.01 ± 0.018.
With `Oc1cc2c(cc1O)[C@@H]1c3ccc(O)c(O)c3OC[C@]1(O)C2` [Hematoxylin], the relative cell viability stood at 1.11 ± 0.062.
As for `COc1ccc(CC2c3cc(OC)c(OC)cc3CC[N+]2(C)CCC(=O)OCCCCCOC(=O)CC[N+]2(C)CCc3cc(OC)c(OC)cc3C2Cc2ccc(OC)c(OC)c2)cc1OC` (centres undefined) [Atracurium Besylate], the figure is 0.9864 ± 0.0063; as for `CC(=O)[C@H]1CC[C@H]2[C@@H]3CC=C4C[C@@H](O)CC[C@]4(C)[C@H]3CC[C@]12C` [Pregnenolone], 1.099 ± 0.007; as for `CN(C)c1ccc(C(=C2C=CC(=[N+](C)C)C=C2)c2ccc(N(C)C)cc2)cc1` [Crystal Violet], 0.278 ± 0.006.
The molecule `O=C(c1ccc(OCCCc2c[nH]cn2)cc1)C1CC1` [Ciproxifan] returned a relative cell viability of 1.08 ± 0.011.
As for `CC(C)[C@H](N)C(=O)OCC(CO)OCn1cnc2c(=O)[nH]c(N)nc21` (some centres undefined) [Valganciclovir HCl], the figure is 0.85 ± 0.028; as for `CN1CCC[C@@H]1CCO[C@](C)(c1ccccc1)c1ccc(Cl)cc1` [Clemastine Fumarate], 0.994 ± 0.011.
Molecule `CCOc1ccc(NC(C)=O)cc1` [Phenacetin] returned a relative cell viability of 0.982 ± 0.16.
In turn, `CN1CCN(c2nc(C3=C(c4c[nH]c5ccccc45)C(=O)NC3=O)c3ccccc3n2)CC1` [Sotrastaurin] came in with a relative cell viability of 0.995 ± 0.13.
The molecule `COc1cc2ncnc(Nc3ccc(F)c(Cl)c3)c2cc1OCCCN1CCOCC1` [Gefitinib (ZD1839)] registered a relative cell viability of 1.19 ± 0.075.
Then `CC(C(=O)O)c1ccc(C(=O)c2cccs2)cc1` (centres undefined) [Suprofen], with 1.13 ± 0.023; and `CCCCC[C@H](O)/C=C/[C@H]1[C@H](O)CC(=O)[C@@H]1CCCCCCC(=O)O` [Alprostadil], with 1.1 ± 0.021; and `COC(=O)[C@]12CCC(C)(C)C[C@H]1[C@H]1C(=O)C=C3[C@@]4(C)C=C(C#N)C(=O)C(C)(C)[C@@H]4CC[C@@]3(C)[C@]1(C)CC2` [Bardoxolone Methyl], with 0.272 ± 0.0085.
`NC1=N[C@@](c2cccc(-c3cncnc3)c2)(c2ccnc(C(F)F)c2)c2cccc(F)c21` came in with a relative cell viability of 1.19 ± 0.027.
As for `CC[C@@H]([C@H](C)O)n1ncn(-c2ccc(N3CCN(c4ccc(OC[C@@H]5CO[C@@](Cn6cncn6)(c6ccc(F)cc6F)C5)cc4)CC3)cc2)c1=O` [Posaconazole], the figure is 1.1 ± 0.015.
As for `O=C(O)c1ccccc1` [Benzoic Acid], the figure is 1.09 ± 0.0064; as for `Cc1ccccc1N=Nc1ccc(NC(=O)c2ccnn2C)c(C)c1`, 1.112 ± 0.01; as for `CCc1oc2ccccc2c1C(=O)c1cc(Br)c(O)c(Br)c1` [Benzbromarone], 1.11 ± 0.08.
Then `CC/C(=C(\c1ccccc1)c1ccc(OCCN(C)C)cc1)c1ccccc1` [Tamoxifen Citrate], with 1.1 ± 0.033; and `Cn1cc(-c2ccc(S(=O)(=O)n3ccc(/C=C/C(=O)Nc4ccccc4N)c3)cc2)cn1`, with 0.838 ± 0.03.
In turn, `CN(C)CCCCC(=O)Nc1ccc(NC(=S)NC(=O)c2ccc(C(C)(C)C)cc2)cc1` [Tenovin-6] yielded a relative cell viability of 0.601 ± 0.049.
Then `C=C(c1ccc(C(=O)O)cc1)c1cc2c(cc1C)C(C)(C)CCC2(C)C` [Bexarotene], with 1.178 ± 0.0021; and `CC[N+](CC)(CC)CCOc1cccc(OCC[N+](CC)(CC)CC)c1OCC[N+](CC)(CC)CC` [Gallamine Triethiodide], with 1.14 ± 0.035; and `O=C(O)c1cc(I)ccc1NC(=O)[C@H](Cc1ccccc1)NCc1ccccc1`, with 1.07 ± 0.055.
Regarding `O=c1c(O)c(-c2ccc(O)c(O)c2)oc2cc(O)cc(O)c12` [Quercetin Dihydrate], the relative cell viability came to 1.07 ± 0.034.
Then `O=c1c(O)c(-c2ccc(O)c(O)c2)oc2cc(O)cc(O)c12` [Quercetin], with 1.12 ± 0.049.
Then `Cc1cnc(C(=O)O)c[n+]1[O-]` [Acipimox], with 0.954 ± 0.057; and `O=C(Nc1ccc([N+](=O)[O-])cc1O)Nc1ccccc1Br`, with 0.922 ± 0.041.
As for `O=C(c1cncc(Br)c1)N1CCC(N2CCCC2)CC1`, the figure is 1.132 ± 0.01; as for `COc1ccc(CN2CCN(C(c3ccc(F)cc3)c3ccc(F)cc3)CC2)c(OC)c1OC` [Lomerizine HCl], 1.01 ± 0.051.
For the molecule `CC(C)Cc1ccc(C(C)C(=O)O)cc1` (centres undefined) [Ibuprofen], the relative cell viability amounted to 1.15 ± 0.068.
In turn, `CCN1CCN(Cc2ccc(Nc3ncc(F)c(-c4cc(F)c5nc(C)n(C(C)C)c5c4)n3)nc2)CC1` registered a relative cell viability of 1.15 ± 0.086.
For the molecule `COCCc1ccc(OCC(O)CNC(C)C)cc1` (centres undefined) [Metoprolol Tartrate], the relative cell viability was found to be 1.12 ± 0.015.
As for `CN1CCC(NC(=O)c2cc(-c3c(O)cc(O)cc3Oc3ccc([N+](=O)[O-])cc3)on2)CC1`, the figure is 0.605 ± 0.008; as for `Cc1cc(-c2ncc(CC(=O)Nc3ccc(-c4cnccn4)cn3)cc2C)ccn1`, 0.913 ± 0.045.
In the case of `Cc1cnc(C(=O)NCCc2ccc(S(=O)(=O)NC(=O)NC3CCCCC3)cc2)cn1` [Glipizide], the relative cell viability worked out at 1.1 ± 0.024.
Then `COC(=O)CC(NC(=O)C(C)NC(=O)C(NC(=O)OCc1ccccc1)C(C)C)C(=O)CF` (centres undefined), with 1.129 ± 0.0097.
